Results taken from PubChem BioAssay AID588855 (National Center for Advancing Translational Sciences (NCATS), 2011).
About 5,000 (1.2%) of roughly 410,000 compounds were called active. This list was built around the results that the source calls inconclusive (neither active nor inactive); the mix of calls is not that of the screen. Calls follow the shape of the dose curve; as a rule, active = well fitted inhibition curve with a large enough effect; inconclusive = small, poorly fitted or top-dose-only effect; inactive = no such curve, though single readings can be large or run the other way. Potencies beside an inconclusive call are fits to weak or partial responses and may not hold up.

Experiment: qHTS for Inhibitors of TGF-b; also: nearly all actives have a fitted effect of over 65% in size
Settings: HepG2 CAGA-GFP TGF-b/SMAD3 reporter, GFP fluorescence, 18 h, TGF-beta stimulated, 500 pg/mL final; series mostly up to 46.1 µM; activity, negative = inhibition: at the top concentration
In short: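 Inhibition of TGF-beta-driven CAGA-GFP reporter expression in HEPG2 cells is measured by cellular GFP fluorescence after 18 h stimulation with 500 pg/mL recombinant TGF-beta in 1% FBS medium at 37 degrees C.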
% is scaled to controls: 0 for no effect and ±100 for the full control effect; potency is read from the fitted curve at half-maximal effect; tags tell the direction and shape of the fitted curve.

SMILES	Potency	activity, negative = inhibition
CC1(CCCc2ccc(N(CCCl)CCCl)cc2)NC(=O)NC1=O (stereo unspecified)	inconclusive: 1.58 µM [inhibitor, partial curve, poor fit]	–
Cc1nc2ccccn2c1P(=S)(c1ccccc1)c1ccccc1	inconclusive: 0.562 µM [inhibitor, partial curve, poor fit]	–
O=C1NC(=O)C(=Cc2ccc(-c3ccc(F)cc3O)o2)C(=O)N1	inconclusive: 15.8 µM [inhibitor, single point]	–
COC(=O)C1=C(c2cc3ccccc3s2)C[C@@H]2CC[C@H]1N2C(=O)NCC1CC1	inconclusive: 8.91 µM [inhibitor, partial curve, poor fit]	–
COc1ccc(NC(=O)CSc2nc(-c3ccco3)cc(C(F)(F)F)n2)cc1OC	inconclusive: 1.12 µM [inhibitor, full curve, poor fit]	–
CC12CN3C(O)C(C)(C1)CC(C)(C2)C3O (stereo unspecified)	–	inactive: -0.729%
C[C@H]1O[C@@H](OC2CC[C@]3(C=O)[C@H]4CC[C@]5(C)[C@@H](C6=CC(=O)OC6)CC[C@]5(O)[C@@H]4CC[C@]3(O)C2)CC2OC(C)(C)OC21 (stereo partly specified)	active: 2 µM	–
CCOC(=O)C1(CCOc2ccccc2)CCN(Cc2ccccc2OC)CC1	inconclusive: 35.5 µM [inhibitor, single point]	–
CN(CC(=O)NC1CCCC1)S(=O)(=O)c1cccc(Cl)c1	inconclusive: 0.178 µM [inhibitor, full curve, poor fit]	–
CN(C)P(=O)(NC(=O)c1cccn1C)N(C)C	inconclusive: 31.6 µM [inhibitor, single point]	–
CCC(=NCc1cc(OC)cc(OC)c1)c1c(O)[nH]c(=O)[nH]c1=O	inconclusive: 2.51 µM [inhibitor, full curve]	–
CCn1nc(-c2cccs2)nc2c(=O)n(C)c(=O)nc1-2	inconclusive: 0.141 µM [inhibitor, full curve, poor fit]	–
c1ccc2c(CNC3CCCCC3)c[nH]c2c1	inconclusive: 35.5 µM [inhibitor, partial curve, poor fit]	–
C[C@]12CC[C@@H](O)CC1=CCC1C2CC[C@@]2(C)C1C[C@@H](F)[C@@H]2O (stereo partly specified)	–	inactive: 6.7%
CCCCn1c(O)c(C=NCc2ccc3c(c2)OCO3)c(=O)[nH]c1=O	inconclusive: 3.98 µM [inhibitor, partial curve, poor fit]	–
CCN(CC)C(=O)Cn1cc(/C=C2\C(=O)NC(=O)N(c3ccccc3F)C2=O)c2ccccc21	inconclusive: 35.5 µM [inhibitor, single point]	–
O=C(Oc1ccc2ccccc2c1)c1ccco1	inconclusive: 5.62 µM [inhibitor, single point]	–
O=C(CCc1ccccc1)N1Cc2cc(-c3ccccc3)ccc2-n2nncc2C1	inconclusive: 7.94 µM [inhibitor, partial curve]	–
O=C1NC(=O)N(Cc2ccc(F)cc2)C(=O)/C1=C\c1ccc(N2CCCC2)cc1	–	inactive: 12.3%
Cc1ccc(S(=O)(=O)N(c2cc(Cl)c(O)c(Cl)c2)P(=O)(OC(C)C)OC(C)C)cc1	–	inactive: 1.84%
COC(=O)C1=C(c2ccc(C(C)=O)cc2)C[C@@H]2CC[C@H]1N2C(=O)NCCOc1ccccc1Cl	–	inactive: -21.4%

SMILES	Potency	activity, negative = inhibition
Cc1c(C=O)c2ccccc2n1Cc1ccc(F)cc1	active: 5.62 µM	–
CCOC(=O)C1(c2ccccc2)CCN(CCC(=O)Nc2ccc(OC)cc2)CC1	–	inactive: -7.59%
Cn1c(O)c(N=Nc2ccc(S(=O)(=O)N3CCOCC3)cc2)c(=O)n(C)c1=O	inconclusive: 35.5 µM [inhibitor, single point]	–
O=C(N/N=C/c1c(O)n(Cc2ccc(F)cc2)c(=O)[nH]c1=O)c1ccccc1	inconclusive: 5.62 µM [inhibitor, full curve, poor fit]	–
COC1C(OC(=O)c2ccc(C)[nH]2)C(O)C(Oc2ccc3c(O)c(NC(=O)c4ccc(O)c(CC=C(C)C)c4)c(=O)oc3c2Cl)OC1(C)C (stereo unspecified)	inconclusive: 25.1 µM [inhibitor, single point]	–
CNC(C)(C)Cc1ccccc1	–	inactive: 3.44%
ClCCN(CCCl)/C(=C\c1ccccc1)c1ccnc2ccccc12	inconclusive: 5.01 µM [inhibitor, partial curve, poor fit]	–
NP(=O)(Oc1ccccc1Cl)Oc1ccccc1Cl	inconclusive: 0.794 µM [inhibitor, full curve, poor fit]	–
CCOc1cc(CNCCc2c[nH]c3ccccc23)cc(Cl)c1OCC	inconclusive: 35.5 µM [inhibitor, single point]	–
CC(=O)c1ccc(N2CCN(S(=O)(=O)c3cc(-c4onc(C)c4C)ccc3C)CC2)cc1	inconclusive: 0.316 µM [inhibitor, full curve, poor fit]	–
Cc1ccc(S(=O)(=O)NCC(=O)OCC(=O)N2N=C(c3ccc(Cl)cc3)CC2c2ccco2)cc1C (stereo unspecified)	inconclusive: 1.26 µM [inhibitor, full curve, poor fit]	–
COC(=O)C1=C(c2cccc(OCc3ccccc3)c2)C[C@@H]2CC[C@H]1N2C(=O)NCc1ccc(OC)c(OC)c1	–	inactive: 1.95%
CCC1(C)CN(S(=O)(=O)OCC(Cl)(Cl)Cl)C(=O)N1 (stereo unspecified)	inconclusive: 5.01 µM [inhibitor, full curve, poor fit]	–
Cc1ccc(-n2c(O)c(C=Nc3ccccc3N)c(=O)[nH]c2=O)cc1C	inconclusive: 0.631 µM [inhibitor, full curve, poor fit]	–
Cc1ccc(-c2nc(CN3C(=O)CN=C(c4ccccc4)c4cc(Cl)ccc43)c(C)o2)cc1	inconclusive: 35.5 µM [inhibitor, single point]	–
O=C1CN=C(c2ccccc2)c2oc3ccc(Br)cc3c2N1	–	inactive: 5.66%
CCCCCn1c(N)c(C(=O)NCCN2CCOCC2)c2nc3ccccc3nc21	inconclusive: 22.4 µM [inhibitor, single point]	–
COC(=O)C1=C(c2ccc(OC(F)(F)F)cc2)C[C@@H]2CC[C@H]1N2C(=O)NCCOc1ccc(OC)cc1	inconclusive: 35.5 µM [inhibitor, single point]	–
O=C(N/N=C/c1c(O)n(-c2ccccc2)c(=O)[nH]c1=O)c1ccncc1	inconclusive: 3.55 µM [inhibitor, partial curve, poor fit]	–
CCOC(=O)c1c(-n2c(C)cc(/C=C3/C(=O)NC(=O)N(CC)C3=O)c2C)sc2c1CCCC2	–	inactive: -24.7%
O=c1c(O)c(-c2ccc(O)c(O)c2)oc2cc(O)cc(O)c12	inconclusive: 35.5 µM [inhibitor, single point]	–

SMILES	Potency	activity, negative = inhibition
Cc1cc(S(=O)(=O)NC(C)C)ccc1OCC(=O)N1CCN(Cc2ccc3c(c2)OCO3)CC1	inconclusive: 11.2 µM [inhibitor, partial curve, poor fit]	–
Cc1cccc(-n2c(/C=C/c3cn(C)c4ccccc34)nc3ccccc3c2=O)c1	–	inactive: -1.49%
O=C(C1CCCN(S(=O)(=O)c2cccc3nsnc23)C1)N1CCN(c2cccc(Cl)c2)CC1 (stereo unspecified)	inconclusive: 7.94 µM [inhibitor, partial curve, poor fit]	–
COC(=O)C1=C(c2ccc(-c3ccccc3)c(F)c2)C[C@@H]2CC[C@H]1N2C(=O)N1CCCCC1	inconclusive: 17.8 µM [inhibitor, partial curve, poor fit]	–
CN1CCN(CCOC2c3ccccc3CSc3ccc(Cl)cc32)CC1 (stereo unspecified)	inconclusive: 35.5 µM [inhibitor, single point]	–
CN1C(=O)C(=Cc2ccccc2OCCOc2ccc([N+](=O)[O-])cc2)C(=O)N(C)C1=O	–	inactive: -1.37%
COc1ccc(NC(=O)CCn2cnc3onc(-c4ccc(F)cc4)c3c2=O)cc1OC	inconclusive: 17.8 µM [inhibitor, single point]	–
C=CCn1c(O)c(C(CC)=Nc2ccccc2NC(C)=O)c(=O)[nH]c1=O	inconclusive: 7.08 µM [inhibitor, full curve, poor fit]	–
CN(C)CC#CCn1c2ccccc2c2ccccc21	inconclusive: 14.1 µM [inhibitor, single point]	–
CCC(=O)O[C@@H]1[C@@H](OC(C)=O)[C@@]2(O)C(C[C@H](O)C2(C)C)[C@](C)(O)[C@H]2CC[C@@H]3[C@@H](O)[C@]12C[C@@]3(C)O (stereo partly specified)	–	inactive: 3.22%
COC(=O)C1=C(c2ccccc2OCc2ccccc2)C[C@@H]2CC[C@H]1N2C(=O)NCc1ccccc1	inconclusive: 35.5 µM [inhibitor, single point]	–
COC(=O)C1=C(c2cccc(OCc3ccccc3)c2)C[C@@H]2CC[C@H]1N2C(=O)NCCOc1ccccc1	inconclusive: 14.1 µM [inhibitor, single point]	–
CCCCC(=O)N/N=C/c1c(O)n(CCC2=CCCCC2)c(=O)[nH]c1=O	inconclusive: 10 µM [inhibitor, partial curve]	–
Cc1ccc2oc(-c3ccc(Cl)cc3)c(O)c(=O)c2c1	inconclusive: 10 µM [inhibitor, partial curve]	–
C#CCNc1ccncc1S(=O)(=O)NC(=O)NC(C)C	inconclusive: 3.16 µM [inhibitor, full curve, poor fit]	–
COC(=O)c1c(C)n(Cc2ccc3c(c2)OCO3)c2ccc(O)cc12	inconclusive: 35.5 µM [inhibitor, single point]	–
COc1ccc2[nH]c(C)c(CCNCc3cc(OC)c4c(c3)OCO4)c2c1	inconclusive: 8.91 µM [inhibitor, partial curve, poor fit]	–
Cc1cccc(NC(N)=S)c1	inconclusive: 5.62 µM [inhibitor, single point]	–
COC(=O)C1=C(c2ccc(OC)c(OC)c2)C[C@@H]2CC[C@H]1N2C(=O)NCCOc1ccccc1	inconclusive: 1 µM [inhibitor, full curve, poor fit]	–
